About 220 (0.56%) of roughly 39,000 compounds showed activity. The list shows a part of the results.
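Further: static incubation at 37 °C against the wild-type strain, values averaged over two biological replicates.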

This assay has as its system Escherichia coli K-12 BW25113. Kind of assay: relative growth (OD600 normalised to plate interquartile mean) (fraction); higher = less growth inhibition, active = 0.2 or less. The conditions noted are these: 50 µM; LB; incubation time: overnight (16-24 h).
Turning to `C[C@@H]1CN([C@H](C)CO)C(=O)c2cc(NS(=O)(=O)c3ccc(F)cc3)ccc2O[C@H]1CN(C)S(=O)(=O)c1ccccc1`, the relative growth is inactive: 1.01.
Turning to `c1cnc2ccc3ncccc3c2c1`, the relative growth was inactive: 0.966.
The value for `Cc1noc(C)c1S(=O)(=O)Nc1cccc2c1O[C@H](CN(C)Cc1ccc3c(c1)OCO3)[C@H](C)CN([C@@H](C)CO)C2=O` was inactive: 1.01.
Then `O=C1c2ccccc2C(=O)c2c1ccc(O)c2O`, with inactive: 1.14; and `C[C@@H]1CN([C@H](C)CO)S(=O)(=O)c2ccc(C#CC3CC3)cc2O[C@@H]1CN(C)C(=O)Cc1ccncc1`, with inactive: 1.02.
Then `CN(/N=C/c1ccncc1)C1=NCCN1`, with inactive: 0.975; and `Cc1noc(C)c1S(=O)(=O)Nc1cccc2c1O[C@@H](CN(C)Cc1ccc(Oc3ccccc3)cc1)[C@@H](C)CN([C@H](C)CO)C2=O`, with inactive: 1; and `O=c1c2cc(O)c(O)cc2oc2cc(O)c(C3OC(CO)C(O)C(O)C3O)c(O)c12` (stereo unspecified), with inactive: 0.996.
In the case of `O=C(C[C@H]1C=C[C@@H](NS(=O)(=O)c2ccc(F)cc2)[C@@H](CO)O1)NCCN1CCCCC1`, the relative growth is inactive: 1.01.
The value for `COc1ccc(NC(=O)Nc2ccc3c(c2)C(=O)N([C@H](C)CO)C[C@@H](C)[C@H](CN(C)Cc2ccc(Cl)c(Cl)c2)OCCCC[C@H](C)O3)cc1` was inactive: 0.997; that for `C[C@H](CO)N1C[C@H](C)[C@@H](CN(C)Cc2ccc(C(=O)Nc3ccccc3N)cc2)Oc2ccc(NS(C)(=O)=O)cc2CC1=O` was inactive: 1.
Then `C[C@@H]1CN([C@H](C)CO)C(=O)c2cccc(NC(=O)NC3CCCCC3)c2O[C@@H]1CN(C)Cc1ccc(Cl)c(Cl)c1`, with inactive: 0.975.
Then `CC(=O)N(C)C[C@H]1Oc2cc(C#CCN(C)C)ccc2S(=O)(=O)N([C@H](C)CO)C[C@@H]1C`, with inactive: 0.96.
As for `C[C@H]1CN([C@@H](C)CO)C(=O)c2cc(NC(=O)C3CCCCC3)ccc2O[C@H]1CN(C)C(=O)Nc1cccc2ccccc12`, the relative growth is inactive: 0.968.
Then `Cc1ccc(S(=O)(=O)Nc2ccc3c(c2)CC(=O)N([C@@H](C)CO)C[C@@H](C)[C@H](CN(C)Cc2ccc(Oc4ccccc4)cc2)O3)cc1`, with inactive: 0.988; and `COc1ccc(NC(=O)N(C)C[C@H]2OCc3cnnn3CCCC(=O)N([C@H](C)CO)C[C@@H]2C)c(OC)c1`, with inactive: 1.01.
The value for `CN1CCN(C(=O)C[C@H]2CC[C@@H]3[C@H](COC[C@@H](O)CN3CC3CCCC3)O2)CC1` was inactive: 1.01.
On to `N#CCCn1c(CC(N)=O)nc2ccccc21`, for which the relative growth is inactive: 1.05.
Then `C[C@H]1CN([C@@H](C)CO)C(=O)c2cc(NC(=O)Cn3cnnn3)ccc2O[C@@H]1CN(C)Cc1ccc2c(c1)OCO2`, with inactive: 0.987; and `C[C@H]1CN([C@@H](C)CO)C(=O)c2cc(NC(=O)CCC(F)(F)F)ccc2O[C@@H]1CN(C)C(=O)Nc1ccc(C(F)(F)F)cc1`, with inactive: 0.958; and `COc1ccc(S(=O)(=O)N(C)C[C@@H]2OCCCC[C@@H](C)Oc3ccc(NC(=O)NC4CCCCC4)cc3C(=O)N([C@@H](C)CO)C[C@@H]2C)cc1`, with inactive: 1.03.
Then `CN1CCN(C(=O)C[C@@H]2C=C[C@H](NC(=O)Nc3ccccc3F)[C@H](CO)O2)CC1`, with inactive: 1.02.
As for `C[N+](C)(C)CCCCCCNC(=O)[C@H]1C[C@H]2C(=O)N[C@@H](CCCC[N+](C)(C)C)C(=O)N2[C@H]1c1ccc(O)cc1`, the relative growth is inactive: 1.01.
Turning to `CNC(=O)[C@H]1O[C@H](n2cnc3c(NCc4cccc(I)c4)nc(Cl)nc32)[C@@H](O)[C@@H]1O`, the relative growth is inactive: 1.03.
Then `Cn1cc(N2C[C@]3(COCCN(C(=O)C4(C#N)CC4)C3)OCC2=O)cn1`, with inactive: 1.01; and `C[C@H]1CN([C@@H](C)CO)S(=O)(=O)c2ccc(Br)cc2O[C@@H]1CN(C)C(=O)Cc1cccnc1`, with inactive: 0.988.
The value for `COc1ccc(NC(=O)Nc2ccc3c(c2)CC(=O)N([C@H](C)CO)C[C@H](C)[C@@H](CN(C)S(C)(=O)=O)O3)cc1` was inactive: 0.998.
The value for `Cc1noc(C)c1NC(=O)Nc1cccc2c1O[C@@H](CN(C)S(=O)(=O)c1ccccc1)[C@@H](C)CN([C@H](C)CO)C2=O` was inactive: 1.01; that for `Cc1c(/C=N/c2ccc(C(C)C)cc2)sc2ccccc12` was inactive: 0.95.
On to `CO[C@@H]1CN(C)C(=O)c2cc(NC(=O)Nc3ccccc3F)ccc2OC[C@@H](C)N(Cc2ccccc2C(=O)O)C[C@H]1C`, for which the relative growth was inactive: 1.01.
The value for `C[C@@H]1CN([C@H](C)CO)C(=O)c2c(c3ccccc3n2C)-c2ccccc2CO[C@H]1CN(C)Cc1cccc(C(F)(F)F)c1` was inactive: 1.07; that for `Cc1ccc(S(=O)(=O)Nc2ccc3c(c2)C(=O)N([C@H](C)CO)C[C@@H](C)[C@H](CN(C)C(=O)Nc2c(C)noc2C)OCCCC[C@@H](C)O3)cc1` was inactive: 0.982.
Then `C[C@@H]1CN([C@@H](C)CO)C(=O)Cc2cc(NS(=O)(=O)c3cn(C)cn3)ccc2O[C@H]1CN(C)Cc1ccc2c(c1)OCO2`, with inactive: 0.957.
Then `Cc1noc(C)c1S(=O)(=O)N(C)C[C@@H]1Oc2ccc(NC(=O)Cc3ccccc3)cc2CC(=O)N([C@H](C)CO)C[C@H]1C`, with inactive: 0.993; and `COCCNC(=O)Cn1cnc2c1c(=O)n(C)c(=O)n2C`, with inactive: 1.01.
As to `CCN1CCN([C@H]2CC(=O)NC2=O)CC1`, the relative growth was inactive: 1.01.
The value for `CCCCCCCCCC[C@@H](O)[C@H]1C=C[C@@H]2C(=O)N(c3ccccc3)C(=O)[C@@H]2N1Nc1ccc([N+](=O)[O-])cc1` was inactive: 1.03.
Consider `O=C(C[C@@H]1C=C[C@H](NC(=O)c2cccnc2)[C@H](CO)O1)NCCN1CCCCC1`, for which the relative growth is inactive: 1.03.
For the compound `COCC#Cc1ccc2c(c1)O[C@@H](CN(C)S(=O)(=O)c1ccc(OC)cc1)[C@@H](C)CN([C@H](C)CO)S2(=O)=O`, the relative growth was inactive: 1.02.
As to `CNCc1ccncc1`, the relative growth was inactive: 1.05.
The value for `Cc1ccc(S(=O)(=O)Nc2cccc3c2O[C@@H](CN(C)C(=O)NC(C)C)[C@@H](C)CN([C@@H](C)CO)C3=O)cc1` was inactive: 1.02.
Then `O=C(CN1CCOCC1)N[C@@H]1CC[C@@H](CCn2cc(C3CC3)nn2)O[C@H]1CO`, with inactive: 0.986; and `C[C@@H]1CN([C@H](C)CO)C(=O)c2cccc(NS(=O)(=O)c3ccc(Cl)cc3)c2O[C@H]1CN(C)C(=O)Nc1cccc2ccccc12`, with inactive: 1.02; and `CC(C)NC(=O)Nc1ccc2c(c1)C(=O)N([C@H](C)CO)C[C@H](C)[C@H](CN(C)Cc1ccc(-c3ccccc3)cc1)O2`, with inactive: 0.977.
`O=C(C[C@H]1CC[C@@H]2[C@H](COC[C@@H](O)CN2S(=O)(=O)c2ccccc2F)O1)NCc1ccccc1Cl`: the relative growth was inactive: 1.02.
Then `C[C@H]1CN([C@@H](C)CO)C(=O)c2cc(C#CC3(O)CCCC3)cnc2O[C@@H]1CN(C)C(=O)CN(C)C`, with inactive: 1.04; and `Cc1noc(C)c1NC(=O)Nc1ccc2c(c1)C(=O)N([C@H](C)CO)C[C@@H](C)[C@H](CN(C)C(=O)Nc1cccc3ccccc13)O2`, with inactive: 1.02; and `CC(C)C(=O)O`, with inactive: 0.991.
On to `C[C@H](CO)N1C[C@H](C)[C@@H](CN(C)S(=O)(=O)c2ccc(Cl)cc2)OCCCC[C@H](C)Oc2ccc(NC(=O)Nc3ccccc3)cc2C1=O`, for which the relative growth is inactive: 1.05.
Then `C[C@H](CO)N1C[C@H](C)[C@H](CN(C)S(=O)(=O)c2ccccc2)Oc2ccc(NS(=O)(=O)c3cccs3)cc2CC1=O`, with inactive: 0.996; and `Cc1ccc(S(=O)(=O)Nc2cccc3c2O[C@@H](CN(C)S(=O)(=O)c2cn(C)cn2)[C@H](C)CN([C@@H](C)CO)C3=O)cc1`, with inactive: 1; and `NC(=O)NCC#Cc1ccc2c(c1)[C@]1(C(=O)N2)[C@H](C(=O)N2CCCCCCC2)[C@H]2C(=O)O[C@H](c3ccccc3)[C@H](c3ccccc3)N2[C@@H]1c1ccc(O)cc1`, with inactive: 1.04.
For `COc1ccc([Si](C)(C)[C@@H]2[C@@H](CCn3cc([C@H](O)c4ccccc4)nn3)O[C@]3(C(=O)N(Cc4ccc(N5C(=O)c6cccc7cccc5c67)cc4)c4ccccc43)[C@H]2C)cc1`, the relative growth was inactive: 0.913.
Then `NCC1OC(OC2C(CO)OC(OC3C(O)C(N)CC(N)C3OC3OC(CO)C(O)C(O)C3N)C2O)C(N)C(O)C1O.O=S(=O)(O)O` (stereo unspecified), with inactive: 0.915.
Then `C[C@@H]1CCCCO[C@@H](CN(C)C(=O)Nc2ccc(F)cc2)[C@H](C)CN([C@@H](C)CO)C(=O)c2cc(NS(=O)(=O)c3ccc(Cl)cc3)ccc2O1`, with inactive: 1.01.
The value for `C[C@@H]1CCCCO[C@H](CN(C)S(=O)(=O)c2ccc(Cl)cc2)[C@H](C)CN([C@H](C)CO)C(=O)c2cc(NC(=O)Cc3ccccc3)ccc2O1` was inactive: 1.03; that for `C[C@H]1CN([C@@H](C)CO)C(=O)c2cccc(NC(=O)c3cnccn3)c2O[C@@H]1CN(C)S(=O)(=O)c1ccc(Cl)cc1` was inactive: 0.925.
With `C[C@@H]1CCCCO[C@@H](CN(C)Cc2ccc3c(c2)OCO3)[C@@H](C)CN([C@H](C)CO)C(=O)c2cc(NC(=O)c3ccccc3)ccc2O1`, the relative growth is inactive: 1.01.
Then `O=C(C[C@H]1CC[C@H]2[C@@H](COC[C@@H](O)CN2S(=O)(=O)c2ccc(F)cc2)O1)N[C@@H]1CCN(Cc2ccccc2)C1`, with inactive: 1.02.
With `C[C@H]1CCCCO[C@@H](CN(C)C(=O)Nc2ccc(C(F)(F)F)cc2)[C@@H](C)CN([C@@H](C)CO)C(=O)c2cc(NC(=O)Nc3ccc(C(F)(F)F)cc3)ccc2O1`, the relative growth was inactive: 1.01.
The value for `C[C@H]1CN([C@@H](C)CO)C(=O)c2cccc(NC(=O)C3CCOCC3)c2O[C@@H]1CN(C)Cc1ccc(C(=O)O)cc1` was inactive: 0.992.

The values are drawn from the supplement of paper PMC9446081.
